Measured values taken from PubChem BioAssay AID463173 (ICCB-Longwood Screening Facility, Harvard Medical School, 2010).
The campaign covered roughly 52,000 compounds. About 1,700 (3.3%) were called active. Cut-off read from the data, not from the text of the source: active = survival mostly below about 52% (no sharp cut-off); inactive = mostly above about 56%. This is one part of the list.

System: Wild type
Assay: S. aureus survival, RN4220 and DeltatarO strains – OD600, teichoic acid synthesis inhibitors, primary screen (AID 463173)
Details: S. aureus RN4220 wild type/DeltatarO growth, OD600, 18 h, active compounds read low, screened at 18.75 µg/mL (by protocol)

SMILES | survival
Cc1ccc(C(=O)NC2(C(F)(F)F)C(=O)Nc3c2c(=O)[nH]c(=O)n3CCc2ccccc2)cc1 (configuration not stated) | inactive: 82%
Oc1cccc(Nc2ncnc3sc4c(c23)CCCC4)c1 | inactive: 65%
CS(=O)(=O)N1CCc2cc(C(=O)NCc3ccccc3)ccc21 | inactive: 85%
CCc1c(C)nc2ncnn2c1N1CCC(C(=O)Nc2ccccc2)CC1 | inactive: 104%
Cc1c(C(=O)N2CCC(C(=O)Nc3ccc(F)cc3)CC2)sc2nc[nH]c(=O)c12 | inactive: 83%
Cc1cccc(-n2c3nc(=O)n(C)c(=O)c-3cc3ccc(Cl)cc32)c1C | inactive: 82%
Cc1noc2ncnc(NCc3cccc(Cl)c3)c12 | inactive: 113%
CC(C)(C)C(=O)N1CCN(c2nc3c(F)cccc3s2)CC1 | inactive: 72%
CCOc1ccc(-n2c(SCC(=O)N3CCCCC3)nc3c([nH]c4ccccc43)c2=O)cc1 | inactive: 94%
N#Cc1ccccc1/C=C/C(=O)N(CCO)CC(O)c1ccccc1 (configuration not stated) | inactive: 100%
COc1cc(C(=O)Nc2ccc3nc(SCc4ccc(C)cc4)sc3c2)cc(OC)c1OC | inactive: 113%
CCOc1ccc(-n2c(SCC(=O)N3CCOCC3)nc3c([nH]c4ccccc43)c2=O)cc1 | active: -3%
CC(C)(C)OC(=O)N1CCC(c2c(C(=O)N3CCN(C(=O)c4ccco4)CC3)cnn2-c2cccc(F)c2)CC1 | inactive: 80%
CCCC(=O)N1CCN(c2nc3c(OC)ccc(C)c3s2)CC1 | active: 14%
CC(=O)c1ccc(S(=O)(=O)Nc2cccc(-c3ccc(N4CCCCCC4)nn3)c2)cc1 | inactive: 99%
CCN(c1ccccc1)S(=O)(=O)c1nnc(NC(=O)c2cccs2)s1 | inactive: 47%
Cc1ccc(C)c(Nc2nnc(-n3nc(C)cc3C)c3ccccc23)c1 | inactive: 80%
O=C(Nc1cccc(F)c1)c1ccc2snnc2c1 | inactive: 83%
Cc1ccc(C(=O)N2CCN(c3ncnc4c3cnn4-c3ccccc3)CC2)cc1 | inactive: 98%
Cc1ccc(-n2nc(C(=O)N3CCC(C)CC3)c(=O)n(C)c2=O)cc1 | inactive: 88%
Cc1ccc(Cl)cc1-n1ncc2c(NC3CCCCCC3)ncnc21 | inactive: 134%
O=C(NCc1ccc(Cl)cc1)c1cnc(N2CCCCC2)c2ccccc12 | inactive: 72%

SMILES | survival
O=c1cc(CSc2nnc(-c3ccccc3)o2)c2ccccc2[nH]1 | inactive: 110%
Cc1cccc(N2CCN(CCNC(=O)C3COc4ccccc4C3)CC2)c1C (configuration not stated) | inactive: 118%
O=C(O)c1cc(-n2c(/C=C\c3ccc(F)cc3)nc3ccccc3c2=O)ccc1Cl | inactive: 67%
Cc1ccc(CNC(=O)C(CC(C)C)NS(=O)(=O)c2ccc3c(c2)oc(=O)n3C)cc1 (configuration not stated) | inactive: 89%
CSc1ccc(CCNC(=O)CCc2c(C)nc3c(c(C)nn3-c3ccccc3)c2C)cc1 | inactive: 92%
O=C(NC1CC(=O)N(c2cccc(F)c2)C1)c1ccc(Br)o1 (configuration not stated) | inactive: 75%
Cc1ccc(Cc2nc3ccccc3nc2SCC(=O)Nc2ccc3c(c2)OCO3)cc1 | inactive: 78%
C/C=C(\C)C(=O)OC1c2c(ccc3ccc(=O)oc23)OC(C)(C)C1OC(C)=O (configuration not stated) | inactive: 106%
Cc1ccc(S(=O)(=O)NCCS(=O)(=O)N2CCN(c3ccccc3)CC2)cc1 | inactive: 84%
COc1ccc(CNC(=O)C2CCN(Cc3nc(-c4ccc(Cl)cc4)oc3C)CC2)cc1 | inactive: 89%
Cc1nc(N2CCOCC2)c2c(C(=O)Nc3cccc(C(F)(F)F)c3)c(C)oc2n1 | inactive: 78%
CC(=O)c1ccc(NC(=O)CCSc2nc(-c3ccco3)cc(C(F)(F)F)n2)cc1 | inactive: 66%
Cc1c(S(=O)(=O)c2cccc(Cl)c2)nnn1-c1cccc(C(F)(F)F)c1 | inactive: 79%
CC(C)CC(=O)Nc1ccc(Cl)cn1 | inactive: 107%
O=C(CSc1nnnn1Cc1ccccc1)c1ccccc1 | inactive: 116%
CCCCN(C)CCCNC(=O)C1CCN(c2nc3ccc(CC)cc3s2)CC1 | inactive: 59%
Cc1sc2ncn(CC(=O)N3CCC(C)CC3)c(=O)c2c1C | inactive: 110%
O=C(O)C1C2C=CC(C2)C1C(=O)N(Cc1ccccc1)Cc1ccccc1 (configuration not stated) | inactive: 103%
COC(=O)c1c(-c2ccc(Cl)cc2)noc1N1CCN(c2ccc(C)cc2C)CC1 | inactive: 78%
CC(C)c1ccc(NC(=O)C2CCCN(S(=O)(=O)c3cccc4cccnc34)C2)cc1 (configuration not stated) | inactive: 74%
COc1ccc(OC)c(NC(=O)c2noc3c2CCCC3)c1 | inactive: 80%
CCOC(=O)Cc1ccc(NC(=O)N2CCOc3ccc(C)cc32)cc1 | inactive: 81%

SMILES | survival
CCOC(=O)c1cc(S(=O)(=O)N2CCN(c3ccccc3)CC2)[nH]n1 | inactive: 73%
Cc1ccc(OC(C)C(=O)Nc2nonc2-c2ccc(Br)cc2)cc1C (configuration not stated) | inactive: 72%
CCOC(=O)Cn1c(=O)oc2cc(S(=O)(=O)N3CCN(c4cccc(C)c4C)CC3)ccc21 | inactive: 78%
Cc1ccc2nc(N(Cc3cccnc3)C(=O)COc3ccccc3)sc2c1 | inactive: 126%
O=C(Nc1c(Cl)cccc1Cl)c1cc(-c2ccc3c(c2)OCO3)on1 | inactive: 82%
CCc1nnc2c3ccccc3nc(Nc3ccc(C(C)=O)cc3)n12 | inactive: 85%
CCOc1ccccc1NC(=O)CSc1nc2c(oc3ccccc32)c(=O)n1-c1ccc(C)c(C)c1 | inactive: 86%
COc1cc(OC)c(OC)cc1/C=C/c1nc2cc3ccccc3cc2c(=O)n1-c1ccc(Cl)cc1 | inactive: 73%
Cc1ccc(Nc2c(-c3c[nH]c4ccccc34)nc3cc(C)ccn23)cc1 | inactive: 68%
Cc1ccc(Oc2c(C(F)(F)F)oc3c(CN4CCCCC4C)c(O)ccc3c2=O)cc1 (configuration not stated) | inactive: 77%
COc1ccc(C(=O)NCC(c2cccnc2)N2CCc3ccccc32)cc1 (configuration not stated) | inactive: 81%
CC(C)OCCCNC(=O)c1ccc2c(c1)N(Cc1c(F)cccc1Cl)C(=O)c1ccccc1S2 | inactive: 100%
COc1ccc(-c2nn3c(=O)cc(CN4CCN(C(=O)c5ccc(C(C)(C)C)cc5)CC4)nc3s2)cc1 | inactive: 65%
O=C(CCC1N=C2c3ccccc3N=C(SCc3ccc(F)cc3)N2C1=O)NCc1cccs1 (configuration not stated) | inactive: 131%
CC1=C(c2ccc(C)c(C)c2)S(=O)(=O)N(Cc2ccc(C(=O)NCc3cccc(C)c3)cc2)C1=O | inactive: 79%
Cc1cccc(NC(=O)c2oc3ccccc3c2NC(=O)Cc2coc3c(C)c(C)ccc23)c1 | inactive: 94%
CCC(C(=O)Nc1cc(Cl)ccc1OC)n1nc(-c2ccccc2)ccc1=O (configuration not stated) | inactive: 42%
CCOC(=O)C1=C(CS(=O)(=O)c2cccc(C(F)(F)F)c2)NC(=O)NC1c1cccc(OC)c1 (configuration not stated) | inactive: 76%
COc1ccc(Cl)cc1C(=O)Nc1sc2c(c1C(=O)OC(C)C)CCCC2 | inactive: 80%
O=C(C1CC1)N1CCc2cc(Br)cc(S(=O)(=O)N3CCN(c4cccc(C(F)(F)F)c4)CC3)c21 | inactive: 67%
COc1ccccc1CNC(=O)C1CCCN(c2nc3ccccc3n3cccc23)C1 (configuration not stated) | inactive: 65%
COc1ccccc1NC(=O)C1=C(C)Nc2c(C(=O)Nc3ccc(F)cc3)cnn2C1c1cccc([N+](=O)[O-])c1 (configuration not stated) | inactive: 73%

SMILES | survival
CCCCN(C)c1nc2c(S(=O)(=O)c3ccc(CC)cc3)nnn2c2ccc(Cl)cc12 | inactive: 86%
COc1ccc(NC(=O)Cn2c(=O)n(-c3ccc(OC)c(OC)c3)c(=O)c3ccccc32)cc1 | inactive: 87%
COc1cc(C(CC(=O)NCc2ccc(F)cc2)N2Cc3ccccc3C2=O)cc(OC)c1OC (configuration not stated) | inactive: 75%
CC(=O)N1CCc2cc(Br)cc(S(=O)(=O)N3CCN(c4cccc(C(F)(F)F)c4)CC3)c21 | inactive: 148%
O=C(Nc1ccccc1)NC1(C(=O)Nc2ccc(-n3cnnn3)cc2)CCCCC1 | inactive: 123%
Cc1noc(/C=C/c2cccs2)c1S(=O)(=O)N1CCC(C(=O)Nc2ccc(F)c(Cl)c2)CC1 | inactive: 77%
COc1ccc(C(F)(F)F)cc1NC(=O)c1sc2nc(-c3cccs3)ccc2c1N | inactive: 93%
CC(=O)c1ccc(N2CCN(c3ncnc4c3c(-c3ccccc3)cn4-c3cccc(C)c3)CC2)cc1 | inactive: 126%
CCOc1ccc(NC(=O)c2ccc(NC(=O)N3CCSc4ncccc43)cc2)cc1 | inactive: 64%
COC(=O)c1ccccc1NC(=O)c1ccc(COc2ccccc2Cl)o1 | inactive: 68%
COc1ccc(C2CC(=O)c3cc(-c4nc(-c5cccc(Cl)c5)cs4)c(=O)[nH]c3C2)cc1OC (configuration not stated) | inactive: 148%
CCOC(=O)c1ccc(NC(=O)c2c(-c3c(F)cccc3Cl)noc2C)cc1 | inactive: 83%
CCC(=O)N1CCc2cc(Br)cc(S(=O)(=O)N3CCC(C(=O)NCCCOC(C)C)CC3)c21 | inactive: 133%
Cc1cccc(N2CCN(c3ncnc4c3nc3n4CCCCC3)CC2)c1C | inactive: 76%
O=C(NC1CCCCC1)c1ccc(Cn2c(SCc3ccccc3F)nc3cccnc32)cc1 | inactive: 66%
COc1cccc(C(=O)Nc2cccc(C(=O)OCc3cc(=O)n4nc(C5CC5)sc4n3)c2)c1 | inactive: 67%
Nc1c(-c2nc(-c3cccs3)no2)nnn1-c1ccc(Cl)cc1 | inactive: 89%
O=C(Cn1cc(C(=O)c2ccco2)c2ccccc21)Nc1ccc(Br)cc1 | inactive: 126%
CCOC(=O)c1cnn(-c2ccc(C(=O)Nc3cc(OC)c(OC)c(OC)c3)cc2)c1N | inactive: 78%
CSc1ncc2c(n1)-c1ccccc1N(Cc1ccc(Cl)cc1)S2(=O)=O | inactive: 88%
O=C(CSc1ccccc1)N1CCc2c([nH]c3ccccc23)C1c1ccc(F)cc1 (configuration not stated) | inactive: 71%
